Data taken from PubChem BioAssay AID1476 (National Center for Advancing Translational Sciences (NCATS), 2009).
Screen size: about 200,000 compounds; about 4,500 (2.2%) were called active. The inconclusive results got no clear call from the source; some entries with a clear call stand among them for comparison. The call rests on the fitted dose curve; in most records, active means well fitted inhibition curve with a large enough effect; inconclusive means small, poorly fitted or top-dose-only effect, or effect the other way; inactive means flat fitted curve, though single readings scatter. Potencies beside an inconclusive call are fits to weak or partial responses and may not hold up.

molecular target: Cruzipain (Trypanosoma cruzi) (UniProt P25779); assay: qHTS Assay for Promiscuous and Specific Inhibitors of Cruzain (without detergent); conditions: purified cruzain, Z-FR-AMC fluorescence, no detergent; further: nearly all actives have a fitted effect of over 40% in size;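 on max response, negative = inhibition: plate controls were enzyme without inhibitor for no effect and buffer without enzyme for full effect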
How it was run: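 Purified cruzain at 1.5 nM, pre-incubated 15 min with compound at room temperature in 100 mM sodium acetate pH 5.5, 5 mM DTT, 0.00005% Triton X-100. Reaction started with 2 uM Z-FR-AMC; AMC fluorescence increase over 60 s gives rate.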
Potency means the concentration at half of the fitted maximal effect; tags describe the fitted curve by direction and shape.

Sequence of UniProt P25779 (P25779 whole entry, looked up): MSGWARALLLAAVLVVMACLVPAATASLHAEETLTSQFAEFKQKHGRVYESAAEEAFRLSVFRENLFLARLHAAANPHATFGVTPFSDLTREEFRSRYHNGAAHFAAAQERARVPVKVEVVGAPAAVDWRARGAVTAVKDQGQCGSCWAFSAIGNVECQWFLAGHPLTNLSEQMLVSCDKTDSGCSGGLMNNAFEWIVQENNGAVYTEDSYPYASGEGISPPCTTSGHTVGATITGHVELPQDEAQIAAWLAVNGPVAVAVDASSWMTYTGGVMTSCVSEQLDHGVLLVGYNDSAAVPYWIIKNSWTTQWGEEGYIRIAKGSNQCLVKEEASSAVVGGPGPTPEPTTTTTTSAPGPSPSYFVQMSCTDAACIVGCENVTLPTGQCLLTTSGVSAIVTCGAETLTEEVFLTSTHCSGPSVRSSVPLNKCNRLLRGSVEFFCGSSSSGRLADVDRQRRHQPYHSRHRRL

Row | Compound | max response, negative = inhibition | Potency
1 | Brc1ccccc1-c1nnc(COc2ncnc3c2cnn3-c2ccccc2)o1 | inactive: -14.5% | –
2 | NC(=O)C1(N2CCCCC2)CCN(C(=O)Nc2ccc(Cl)c(Cl)c2)CC1 | inactive: -1.64% | –
3 | Cc1ccc(C2C(C#N)=C(N)SC(N)=C2C#N)o1 | – | inconclusive: 25.1 µM [inhibitor, single point]
4 | Cc1ccc(C2CC(c3cccs3)=NN2C(=O)c2ccc(Br)o2)cc1 (stereo not given) | – | active: 7.94 µM
5 | O=C(NC1CC1)C1CSC(c2cccnc2)=N1 (stereo not given) | – | inconclusive: 39.8 µM [inhibitor, single point]
6 | CCOc1ccc(NC(=O)C(C)Oc2ccccc2C(=O)Nc2ccc(C)c(Cl)c2)cc1 (stereo not given) | – | inconclusive: 39.8 µM [inhibitor, single point]
7 | Cc1cc(Nc2cccc(F)c2)n2nc(-c3ccco3)nc2n1 | inactive: 4.55% | –
8 | Cc1ccc(C(=O)N/C(=C\c2cccs2)C(=O)NCc2cccnc2)cc1 | inactive: 13.3% | –
9 | COc1cc(NC(=O)c2ccc(Br)o2)ccc1NC(=O)c1ccccc1Cl | – | inconclusive: 31.6 µM [inhibitor, single point]
10 | Cc1cccc(CN2C(=O)c3ccccc3Sc3ccc(C(=O)NCCc4ccccc4)cc32)c1 | – | inconclusive: 39.8 µM [inhibitor, single point]
11 | CCn1c(C(=O)N2CCCC(C(=O)NCCc3ccc(C)cc3)C2)cc2sccc21 (stereo not given) | – | inconclusive: 31.6 µM [activator, single point]
12 | Cc1nc2nc(SCC(=O)c3cccc([N+](=O)[O-])c3)[nH]c2cc1Br | – | inconclusive: 39.8 µM [inhibitor, single point]
13 | COc1cccc(C(=O)Nc2nc(-c3ccc(S(=O)(=O)N4CCOCC4)cc3)cs2)c1 | – | inconclusive: 20 µM [inhibitor, partial curve, poor fit]
14 | O=C(CSc1nc2ccc(NC(=O)CSc3nnnn3-c3ccccc3)cc2s1)Nc1ccccc1 | – | active: 5.01 µM
15 | O=C1c2ccccc2C(=O)C12OC2c1ccc(Cl)cc1 (stereo not given) | inactive: 2.76% | –
16 | CCOc1ccccc1/C=N/NC(=O)Cc1csc(Nc2cccc(C(F)(F)F)c2)n1 | – | active: 10 µM
17 | COc1ccc(OC)c(NC(=O)Cn2cc(C(=O)c3cccs3)c3ccccc32)c1 | – | inconclusive: 39.8 µM [inhibitor, single point]
18 | COc1ccc(-c2coc3c(O)c(OC)ccc3c2=O)cc1 | inactive: 3.59% | –
19 | Cc1ccc(C(C)C)c(OCCSc2nc(-c3cccs3)nc3cc(=O)[nH]n23)c1 | – | active: 7.94 µM
20 | Cc1cccc(N(C)C(=O)C2CCN(S(=O)(=O)c3cccc4nonc34)CC2)c1 | – | inconclusive: 25.1 µM [activator, single point]
